Legend:
[1] = biological target: T1, Biotinylated Human VEGF165 (Acro, Catalog No. VE5-H82Q0) (human, UniProt P15692-4 27-191, biotinylated (site not stated)); assay: flow cytometry: antibody titrated on CHOK1-hCTLA4 cells, then mixture of hPD1-mFc and biotin-hVEGF165; PE streptavidin signal
T1 construct: Bought protein; also called Biotinylated-hVEGF165; Biotin-hVEGF165
T1 sequence (looked up): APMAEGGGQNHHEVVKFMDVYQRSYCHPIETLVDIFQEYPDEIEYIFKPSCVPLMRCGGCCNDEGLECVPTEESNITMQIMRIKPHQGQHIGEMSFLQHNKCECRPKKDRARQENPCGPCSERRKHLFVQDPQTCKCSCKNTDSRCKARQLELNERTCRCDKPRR
Experimental: CHOK1-hCTLA4 cells were obtained by trypsin digestion, washed twice with PBS containing 2% FBS (FACS buffer), and the cell density was adjusted to about 8×10⁵ cells/ml. 200 μL/well of the cells were added to a 96-well U-bottom plate. After centrifugation at 300 g for 5 minutes, the supernatant was discarded and 100 μL of antibody solution serially diluted with FACS buffer was added in triplicate (with starting concentration of 200 nM, 3-fold serial dilution, and the same volume of FACS buffer was used as a negative control). Mixed well and incubated at 4° C. for 60 min. After washing the plate three times with FACS buffer, a mixture consisting of 1 μg/mL hPD1-mFc (Acro, Catalog No.: PD1-H5255) and 1 μg/mL Biotin-hVEGF165 in a 1:1 volume ratio was added to each well at 100 μL/well to detect the simultaneously binding activity of the trispecific antibodies to VEGF and PD-1 after binding to cell surface CTLA-4. […] After washing the plate three times with FACS buffer, 100 μL/well of PBS solution was added to resuspend the cells, and the fluorescence signal was detected on a flow cytometer. The binding activity was fitted using a four-parameter model, and the EC₅₀ value of each antibody was calculated.

[2] = biological target: T2, human VEGF165-his protein (Acro, Catalog No. VE5-H5248) (human, UniProt P15692-4 27-191); assay: competitive ELISA, VEGF165-His coated, biotin-human KDR
T2 construct: Bought protein; also called hVEGF165-His; VEGFA; not shown: his tag
T2 sequence (looked up): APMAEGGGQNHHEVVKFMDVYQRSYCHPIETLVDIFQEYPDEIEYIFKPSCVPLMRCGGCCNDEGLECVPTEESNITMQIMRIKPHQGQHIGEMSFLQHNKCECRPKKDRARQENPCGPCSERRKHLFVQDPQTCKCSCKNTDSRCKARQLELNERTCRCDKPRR

[3] = biological target: T3, Biotinylated-hCTLA4 (Acro, Catalog No. CT4-H82E3) (human, UniProt P16410 36-161, biotinylated (site not stated)); assay: sandwich ELISA: antibody titrated on coated human PD1-his, detected with biotinylated hCTLA4 and streptavidin-HRP
T3 construct: Bought protein

[4] = biological target: T4, human VEGF (ACRO, Catalog No. VE5-H4210) (human, UniProt P15692-4 27-191); assay: BLI (Octet RED96e), antibody on AHC sensor, antigen as analyte 6.25-100 nM, 1:1 model
T4 construct: Analyte of the Octet assay; Bought protein
T4 sequence (looked up): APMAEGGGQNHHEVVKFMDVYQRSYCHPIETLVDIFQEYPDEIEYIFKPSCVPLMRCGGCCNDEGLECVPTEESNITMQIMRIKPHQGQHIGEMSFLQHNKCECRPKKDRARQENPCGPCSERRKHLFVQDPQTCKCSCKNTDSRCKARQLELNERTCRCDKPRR
Experimental: (§1) Octet® RED96e (ForteBio) was used to detect the affinity of trispecific antibodies to human PD-1, CTLA-4 and VEGFA. The specific method was as follows: the AHC Sensor was immersed in PBST (PBS containing 0.02% Tween) buffer for 10 minutes to activate the Sensor. The ligand (antibody to be tested) was diluted to 5 μg/mL with PBST buffer. […] The diluted ligand and analyte were added to the corresponding wells at 200 μL/well in triplicate. Program parameter settings: loading: 180 s, association: 180 s, dissociation: 600 s, regeneration: Gly-HCl pH 1.5, 30s, regeneration 3 times. […] Curve fit acceptance criteria: Full R\hat{ }2≥0.95.

[5] = biological target: T5, human CTLA-4 protein (Acro, Catalog No. CT4-H52H9) (human, UniProt P16410 36-161); assay: as above
T5 construct: Bought protein
Experimental: as §1

[6] = biological target: T5, human CTLA-4 protein (Acro, Catalog No. …); assay: ELISA, plate coated with human CTLA-4 protein
[7] = biological target: T2, human VEGF165-his protein (Acro, …); assay: ELISA, plate coated with human VEGF165-his
Experimental: ELISA was used to determine the activity of the trispecific antibodies binding to the PD-1 protein: 1 μg/mL human PD-1 protein (Acro, Catalog No.: PD1-H5221) was used to coat a high-adsorption 96-well ELISA plate and incubated at 4° C. overnight. On the next day, the plate was washed three times with PBST solution and blocked with 1% BSA-PBS solution at 37° C. for 1 hour. At the same time, 3-fold gradient dilutions of the antibody were prepared with 1% BSA-PBS solution, with a starting concentration of 10 nM. The antibodies of each gradient concentration were added to the blocked 96-well ELISA plate at 100 µL/well in triplicate and incubated at 37° C. for 1 hour. The plate was then washed three times with 0.05% PBST solution, and 100 μL/well of HRP-labeled secondary antibody (Sigma, Catalog No.: A0170) diluted at 1:5000 was added to the ELISA plate and incubated at 37° C. for 1 hour. The plate was washed three times with 0.05% PBST solution and developed with TMB. The absorbance of the 96-well ELISA plate at 450 nm was detected by an ELISA reader. The OD₄₅₀ value was fitted using a four-parameter model to calculate the EC₅₀ value of each antibody binding to PD-1.
The binding activity of the trispecific antibodies to VEGFA protein was detected by ELISA method as described in Section 2.1. The used human VEGF165-his protein was purchased from Acro, Catalog No.: VE5-H5248.

[8] = biological target: T1, Biotinylated Human VEGF165 (Acro, …); assay: sandwich ELISA: antibody titrated on coated human PD1-his, detected with biotinylated hVEGF165 and streptavidin-HRP

B1: HC010-F8 (trispecific antibody, human IgG4 S228P, kappa)
heavy: EVQLVESGGGLVQPGGSLRLSCAASGFTFSSYGMSWVRQAPGKCLEWVSTISGGGRDTYYPDSVKGRFTISRDNSKNTLYLQMNSLRAEDTAVYYCARQNGITWFADWGQGTLVTVSSGGGGSGGGGSGGGGSGGGGSDIQMTQSPSSLSASVGDRVTITCRASESVDNYGISFMNWYQQKPGKAPKLLIYAASNQGSGVPSRFSGSGSGTDFTLTISSLQPEDFATYYCQQSKEVPWTFGCGTKVEIKGGGGSGGGGSGGGGSGGGGSEVQLVESGGGLVQPGGSLRLSCAASGYTFTNYGMNWVRQAPGKGLEWVGWINTYTGEPTYAADFKRRFTFSLDTSKSTAYLQMNSLRAEDTAVYYCAKYPHYYGSSHWYFDVWGQGTLVTVSSASTKGPSVFPLAPCSRSTSESTAALGCLVKDYFPEPVTVSWNSGALTSGVHTFPAVLQSSGLYSLSSVVTVPSSSLGTKTYTCNVDHKPSNTKVDKRV[human IgG4 Fc with S228P (EU numbers) not spelt out]AGGGGSGGGGSGGGGSGGGGSEVQLLESGGGLVQPGGSLRLSCAASGSIFSINHMAWYRQAPGKQRELVAGVNSRGTTNYVDSVKGRFTISRDNSKNTLYLQMNSLRAEDTAVYYCRALGGAVAAWGQGTLVTVSS
light: DIQMTQSPSSLSASVGDRVTITCSASQDISNYLNWYQQKPGKAPKVLIYFTSSLHSGVPSRFSGSGSGTDFTLTISSLQPEDFATYYCQQYSTVPWTFGQGTKVEIKRTVAAPSVFIFPPSDEQLKSGTASVVCLLNNFYPREAKVQWKVDNALQSGNSQESVTEQDSKDSTYSLSSTLTLSKADYEKHKVYACEVTHQGLSSPVTKSFNRGEC
notes: light: bevacizumab VL-kappa; also called H010-F8
**Q.** For B1, which EC50 [1] is on record?
**A.** 1.44 nM

**Q.** And the IC50 [2]?
**A.** 4.19 nM

**Q.** What about the EC50 [3] of the same binder?
**A.** 0.105 nM

**Q.** What about the Kd [4] of the same binder?
**A.** 5.47 nM

**Q.** And the Kd [5]?
**A.** 4.97 nM

**Q.** What about the EC50 [6] of the same binder?
**A.** 0.127 nM

**Q.** And the EC50 [7]?
**A.** 0.072 nM

**Q.** And the EC50 [8]?
**A.** 0.049 nM

Source: patent publication US20260116960A1 (SHANGHAI HONGCHENG BIOPHARMACEUTICAL, published 2026)
